According to PubChem BioAssay (Tox21):
Where “and” joins values, the source holds several entries; their conditions need not be identical. Equal entries are not always repeated. Inconclusive results, whose numbers are uncertain, are shown with a selection of clear calls. Potencies beside an inconclusive call are fits to weak or partial responses and may not hold up. Calls of active or inactive are those of the source. Calls come from the whole dose curve; as a rule, active = well fitted cell-killing curve with a large enough effect in the repeat runs; inconclusive = weak or mixed curves; inactive = flat fitted curve, though single readings scatter.

Experiment: qHTS RealTime-Glo MT Cell Viability Assay in HepG2 cells - 8 hour (AID 1224873); note: nearly all actives have a fitted effect of over 55% in size
Details: RealTime-Glo luminescence; series mostly up to 76.8 µM
Description: National Center for Advancing Translational Sciences [NCATS]
NIH Chemical Genomics Center [NCGC]
U.S. Environmental Protection Agency [EPA]
National Institutes of Environmental Health Sciences [NIEHS]
National Toxicology Program [NTP]
U.S. Food and Drug Administration [FDA]
Measure of cell viability is critical in the cell-base assay. Analysis of cell viability is necessary for the characterization of cell responses to cytotoxic drugs and environmental stress. A RealTime-Glo MT Cell Viability Assay to monitor cell viability in real time of continues cell culture during 40 hours of compound treatment was used to screen Tox21 10K library compounds in HepG2 cells. The RealTime-Glo MT Cell Viability Assay is a nonlytic, homogeneous, bioluminescent method to measure cell viability in real time using a simple, plate-based method. The assay involves adding NanoLuc luciferase and a cell-permeant prosubstrate to cells in culture. Viable cells reduce the proprietary prosubstrate to generate a substrate for NanoLuc luciferase. This substrate diffuses from cells into the surrounding culture medium, where it is rapidly used by the NanoLuc Enzyme to produce a luminescent signal. The signal correlates with the number of viable cells, making the assay well suited for cytotoxicity studies.
Tox21 Assay Protocol Summary:
The mixture of HepG2 cell suspension and reagents were dispensed at 600cells/6 ul/well in 1536-well tissue culture treated black solid bottom plates using a Multidrop dispenser. After the assay plates were incubated at a 37 C/5% CO2 incubator for 5 hours, 23 nL of compounds dissolved in DMSO, positive and negative controls was transferred to the assay plate by a pintool work station. The plates were incubated at 37 C for 40 hours. The luminescence intensity were measured at 0h, 8h, 16h, 24h, 32h and 40h time points using ViewLux plate reader during compound treatment.
Potency is the fitted concentration of half-maximal effect; tags give direction and shape of the fitted curve.

Row | Structure (SMILES) | Potency
1 | Cc1cc(O)c(C(C)(C)C)cc1Sc1cc(C(C)(C)C)c(O)cc1C | active: 43.6 µM
2 | Cc1cc(O)c(C(C)C)cc1Cl | inconclusive: 61.6 µM [falling, single point]
3 | Cc1ccc(S(=O)(=O)Oc2ccc(N=Nc3ccc(-c4ccc(N=Nc5c(O)ccc6cc(S(=O)(=O)O)cc(S(=O)(=O)O)c56)c(C)c4)cc3C)cc2)cc1 | inconclusive: 19.6 µM [falling, partial curve] and inconclusive: 12.7 µM [falling, partial curve]
4 | CC/C(=C(\c1ccc(O)cc1)c1ccc(OCCN(C)C)cc1)c1ccccc1 | inconclusive: 55.1 µM [falling, partial curve]
5 | CN(C)C(=O)C1(N2CCCCC2)CCN(CC[C@@]2(c3ccc(Cl)c(Cl)c3)CN(C(=O)c3ccccc3)CCO2)CC1 | active: 45.8 µM
6 | O=C1c2c(O)ccc([N+](=O)[O-])c2C(=O)c2c([N+](=O)[O-])ccc(O)c21 | active: 13.7 µM
7 | COC(=O)c1c(Cl)c(Cl)c(C(=O)OC)c(Cl)c1Cl | inconclusive: 19.5 µM [phenotype inactive, partial curve, poor fit]
8 | CCCCCCCCCOC(=O)c1ccc(O)cc1 | inconclusive: 48.3 µM [falling, partial curve]
9 | OCCN1CCN(CC/C=C2/c3ccccc3Sc3ccc(C(F)(F)F)cc32)CC1 | active: 23.9 µM
10 | CC(CN1c2ccccc2Sc2ccccc21)N(C)C (stereo not given) | inconclusive: 24.5 µM [falling, partial curve]
11 | [Cl][Bi]([Cl])([c]1ccccc1)([c]1ccccc1)[c]1ccccc1 | active: 10.9 µM
12 | O=C(c1ccc(OCCN2CCCCC2)cc1)c1c(-c2ccc(O)cc2)sc2cc(O)ccc12 | inconclusive: 55 µM [falling, single point] and inconclusive: 49 µM [falling, single point]
13 | COc1cc(/C=C/C(=O)CC(=O)/C=C/c2ccc(O)c(OC)c2)ccc1O | inconclusive: 43.9 µM [falling, partial curve]
14 | CCCCc1oc2ccc(NS(C)(=O)=O)cc2c1C(=O)c1ccc(OCCCN(CCCC)CCCC)cc1 | active: 21.3 µM
15 | C=CCc1cc(S(=O)(=O)c2ccc(O)c(CC=C)c2)ccc1O | inconclusive: 49 µM [falling, partial curve]
16 | CC(=O)Nc1ccc(C(=O)CCl)cc1 | inconclusive: 49 µM [falling, partial curve]
17 | CCCC(c1cc(C(C)(C)C)c(O)cc1C)c1cc(C(C)(C)C)c(O)cc1C | active: 39.4 µM
18 | CCCCCCCCCCCCCC[P+](CCCC)(CCCC)CCCC | active: 38.7 µM and active: 17.4 µM
19 | Cc1cc(O)c2ccccc2c1O | active: 10.7 µM
20 | CCC(C)(C)c1cc(O)c(C(C)(C)CC)cc1O | inconclusive: 38.9 µM [falling, partial curve]

Row | Structure (SMILES) | Potency
21 | COc1ccccc1OCCNCC(O)COc1cccc2[nH]c3ccccc3c12 (stereo not given) | inconclusive: 23.9 µM [falling, partial curve]
22 | CCCCCCCCOC(=O)c1cc(O)c(O)c(O)c1 | active: 17.4 µM
23 | Cc1cc(Br)ccc1NC(=O)CCl | inconclusive: 12.3 µM [falling, partial curve]
24 | Oc1cc2ccccc2c2ccccc12 | active: 11 µM
25 | CCCCCCCCCCCCCCCCCC[N+](C)(C)C | inconclusive: 55.1 µM [falling, single point]
26 | CCCCCCCCCCCC(=O)NCCCN(C)C | inconclusive: 54.9 µM [falling, single point]
27 | CC(Cc1ccc(O)c(O)c1)C(C)Cc1ccc(O)c(O)c1 (stereo not given) | active: 43.6 µM
28 | CCCCCCCCCCCCCCCCCCNC(=O)OC1CCN(C(=O)OC[C@H](COC(=O)N(Cc2cccc[n+]2CC)C(=O)c2ccccc2OC)OC)CC1 | inconclusive: 26.8 µM [falling, single point]
29 | Oc1ccc2cc(SSc3ccc4cc(O)ccc4c3)ccc2c1 | inconclusive: 49 µM [falling, partial curve]
30 | COc1ccc(CN2CCN(C(c3ccc(F)cc3)c3ccc(F)cc3)CC2)c(OC)c1OC | inconclusive: 26.8 µM [falling, single point]
31 | C=C1C(C)(C)[C@@]2(Cl)C(Cl)[C@]1(Cl)C(Cl)(Cl)C2(Cl)Cl (stereo not given in full) | inconclusive: 53.9 µM [falling, single point]
32 | CCCCCCCCCCOCC(O)CN (stereo not given) | inconclusive: 21.3 µM [falling, partial curve]
33 | C=CC(=O)OCC(O)COc1ccccc1 (stereo not given) | inconclusive: 24.5 µM [falling, partial curve]
34 | Cc1cc(O)c(Cl)c(C)c1Cl | inconclusive: 61.6 µM [falling, partial curve, poor fit]
35 | CCN(CC)CCOc1ccc(/C(=C(\Cl)c2ccccc2)c2ccccc2)cc1 | inconclusive: 23.9 µM [falling, partial curve]
36 | C=C1C(CCl)(CCl)C2(Cl)C(Cl)C(Cl)C1(Cl)C2(Cl)Cl (stereo not given) | inconclusive: 54.3 µM [falling, partial curve, poor fit]
37 | CCCCC(CC)COC(=O)c1ccc(O)cc1 (stereo not given) | inconclusive: 34.7 µM [falling, partial curve, poor fit]
38 | Clc1ccc(C(c2ccccc2Cl)C(Cl)Cl)cc1 (stereo not given) | inconclusive: 54.9 µM [falling, single point]
39 | CCOC(=O)C1=C(C)NC(C)=C(C(=O)OCC)C1c1ccccc1/C=C/C(=O)OC(C)(C)C | inconclusive: 19 µM [falling, partial curve, poor fit]
40 | COc1cc(-c2nc(NC(=O)c3cc4cc(C)cc(C)c4n3CC(=O)O)sc2CCC2CCCCC2)c(OC)cc1Cl | inconclusive: 35.7 µM [falling, partial curve]
